Laboratory results published in article PMC4336329 (PLoS ONE, 2015).
The campaign covered roughly 310,000 compounds. About 14,000 (4.5%) showed an effect of 50% or more. The effect is printed as a negative number. The list shows a part of the results.

target: human ether-à-go-go-related gene (hERG) potassium channel (human, UniProt Q12809); test: primary screen, population patch clamp on CHO cells stably expressing hERG
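Further: peak tail current of the secondary pulse compared with the same well before compound.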

Sequence of human ether-à-go-go-related gene (hERG) potassium channel (Q12809 whole entry, looked up): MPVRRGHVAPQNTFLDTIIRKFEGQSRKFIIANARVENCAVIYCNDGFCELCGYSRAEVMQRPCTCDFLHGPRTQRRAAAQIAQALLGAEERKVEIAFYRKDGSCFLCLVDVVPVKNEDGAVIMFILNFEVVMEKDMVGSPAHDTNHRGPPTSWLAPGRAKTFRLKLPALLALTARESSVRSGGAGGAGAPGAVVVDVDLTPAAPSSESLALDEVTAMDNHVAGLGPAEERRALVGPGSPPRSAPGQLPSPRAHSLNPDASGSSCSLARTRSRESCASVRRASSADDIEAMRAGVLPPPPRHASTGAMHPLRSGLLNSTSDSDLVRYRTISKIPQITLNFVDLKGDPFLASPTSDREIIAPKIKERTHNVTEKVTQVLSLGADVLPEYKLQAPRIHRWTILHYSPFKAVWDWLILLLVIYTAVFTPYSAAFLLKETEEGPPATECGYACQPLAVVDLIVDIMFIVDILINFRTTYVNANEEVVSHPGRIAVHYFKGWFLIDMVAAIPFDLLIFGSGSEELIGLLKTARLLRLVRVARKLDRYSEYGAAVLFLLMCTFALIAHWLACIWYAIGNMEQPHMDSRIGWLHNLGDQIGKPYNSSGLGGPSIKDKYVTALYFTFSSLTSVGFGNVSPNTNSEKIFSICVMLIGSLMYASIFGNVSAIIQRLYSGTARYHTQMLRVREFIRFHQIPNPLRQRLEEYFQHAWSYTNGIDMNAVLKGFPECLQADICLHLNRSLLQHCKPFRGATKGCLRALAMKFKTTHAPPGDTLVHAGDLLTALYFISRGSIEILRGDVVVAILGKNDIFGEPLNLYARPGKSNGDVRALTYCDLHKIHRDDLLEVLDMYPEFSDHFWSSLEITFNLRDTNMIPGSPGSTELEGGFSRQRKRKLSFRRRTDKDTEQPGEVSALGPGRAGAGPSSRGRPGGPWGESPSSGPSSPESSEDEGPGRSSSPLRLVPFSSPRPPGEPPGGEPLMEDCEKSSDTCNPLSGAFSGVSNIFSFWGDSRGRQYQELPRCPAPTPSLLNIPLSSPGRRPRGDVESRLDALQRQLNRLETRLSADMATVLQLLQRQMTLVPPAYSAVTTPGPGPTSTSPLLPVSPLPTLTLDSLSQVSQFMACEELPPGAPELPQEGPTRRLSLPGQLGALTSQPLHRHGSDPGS

Compared with `CCOC(=O)c1oc2ccc(/C=N/O)c(Cl)c2c1C`, `CCOC(=O)c1c(C)n(C)c2ccc(OC)c(NC(=O)c3cccs3)c12` is lower in “hERG current change (%, negative = inhibition) at 10uM” value: 37.3% for the first, -0.453% for the second.

First: Cc1c(NC(=O)C(C)Sc2n[nH]c(N)n2)c(=O)n(-c2ccccc2)n1C (stereo not shown)
Second: CCOC(=O)c1c(NC(=O)CCN2CCOCC2)sc(C)c1-c1ccccc1
The “hERG current change (%, negative = inhibition) at 10uM” value of the first is lower: 17% for the first, 37.9% for the second.

Going from `Cc1nn(C)cc1S(=O)(=O)Nc1ncccn1` to `COc1ccc(S(=O)(=O)NCc2cc(=O)n(C)c(=O)n2C)cc1C`, the “hERG current change (%, negative = inhibition) at 10uM” value rises from 17.4% to 22.6%.

First: CCN(CC)S(=O)(=O)c1ccc(NC(=O)COC(=O)c2c[nH]c(=O)[nH]c2=O)cc1
Second: CCc1nnc(NS(=O)(=O)c2ccc(NC(=O)c3cc(Cl)ccc3Cl)cc2)s1
The “hERG current change (%, negative = inhibition) at 10uM” value of the first is higher: 16.4% for the first, 11.7% for the second.

Compared with `O=C1c2cccnc2C(=O)N1Cc1ccc(Cl)cc1`, `O=C1C2CC=CCC2C(=O)N1c1ccc(NCCc2ccc(Cl)cc2)c([N+](=O)[O-])c1` (stereo not shown) is higher in “hERG current change (%, negative = inhibition) at 10uM” value: -16.2% for the first, 2.1% for the second.

First: CCN(CC)CCN=Cc1c(O)n(CCC2=CCCCC2)c(=O)[nH]c1=O
Second: Cc1csc(SCCn2c(Br)nc3c2c(=O)[nH]c(=O)n3C)n1
The “hERG current change (%, negative = inhibition) at 10uM” value of the first is lower: -65.6% for the first, -4.31% for the second.

First: Cc1c(Cl)ccc2sc(N3CCN(C(=O)C4=COCCO4)CC3)nc12
Second: COc1ccc2cc(C#N)c(N3CCN(C(=O)c4ccccc4C)CC3)nc2c1
The “hERG current change (%, negative = inhibition) at 10uM” value of the first is higher: -4.45% for the first, -18.9% for the second.

First: O=C(Cc1cccs1)NCc1cccc(Cl)c1
Second: O=C(NCc1ccc2c(c1)OCO2)C1COc2ccccc2O1 (stereo not shown)
The “hERG current change (%, negative = inhibition) at 10uM” value of the first is higher: 12.3% for the first, -7.41% for the second.

Compared with `NC(=O)c1ccccc1NC(=O)N1CCOCC1`, `Cc1ccccc1CS(=O)(=O)CCC(=O)NCCCN1CCOCC1` is lower in “hERG current change (%, negative = inhibition) at 10uM” value: -2.02% for the first, -10.6% for the second.

First: CC(C)(C)NC(=O)C(c1ccncc1)N(Cc1ccco1)C(=O)c1ccc(-c2ccccc2)[nH]1 (stereo not shown)
Second: CCN(c1ccccc1)S(=O)(=O)c1cccc(C(=O)Nc2ccc(C)cn2)c1
The “hERG current change (%, negative = inhibition) at 10uM” value of the first is higher: 19.3% for the first, -7.17% for the second.

Going from `NC(N)=NS(=O)(=O)c1ccc(N/C=C/C(=O)c2ccc(Cl)c(Cl)c2)cc1` to `COc1ccc(S(=O)(=O)Nc2ccc(O)c3ccccc23)cc1`, the “hERG current change (%, negative = inhibition) at 10uM” value falls from 17.3% to -10.2%.

Going from `C#CCOc1c(Br)cc(/C=C2/C(=O)ON=C2C)cc1OC` to `CCOc1cc(/C=N/Nc2nnc(C)n2N)ccc1O.Cl`, the “hERG current change (%, negative = inhibition) at 10uM” value rises from 18.6% to 24.8%.

First: Cc1nc(N)ncc1-c1ccc2c(c1)OCO2
Second: O=C(NC1CCCC1)C(c1cccs1)N(C(=O)c1ccco1)c1ccc2c(c1)OCO2 (stereo not shown)
The “hERG current change (%, negative = inhibition) at 10uM” value of the first is higher: 16.7% for the first, -33.5% for the second.

Going from `CC1(C)SC2c3ccccc3C(=O)N2[C@@H]1C(=O)NC1CCCC1` (stereo partly shown) to `COc1ccccc1OCC#CCNC1CCCCC1C.O=C(O)C(=O)O` (stereo not shown), the “hERG current change (%, negative = inhibition) at 10uM” value falls from -12.3% to -36.7%.

Compared with `O=C(CSc1n[nH]c(C2CCCC2)n1)NC1CCCC1`, `Cl.Clc1ccc(CNC2CCCC2)cc1` is lower in “hERG current change (%, negative = inhibition) at 10uM” value: -4.69% for the first, -13.1% for the second.

Going from `CC(C)n1cc(CN2CCCC(C(=O)Nc3cccc(-c4cc5ccccc5[nH]4)c3)C2)cn1` (stereo not shown) to `O=C(Nc1cccc(C(F)(F)F)c1)c1cccn(Cc2ccc3c(c2)OC(F)(F)O3)c1=O`, the “hERG current change (%, negative = inhibition) at 10uM” value rises from -46.3% to 2.94%.

Going from `N#Cc1sc2nc(C3CC3)cc(-c3ccccc3)c2c1N` to `NNC(=O)c1csc(-c2ccccc2)n1`, the “hERG current change (%, negative = inhibition) at 10uM” value rises from 3.69% to 15%.

First: N#Cc1ccccc1Sc1ccccc1C(=O)OCC(=O)NC12CC3CC(CC(C3)C1)C2
Second: O=C(NC12CC3CC(CC(C3)C1)C2)N1CCN(c2ccccn2)CC1
The “hERG current change (%, negative = inhibition) at 10uM” value of the first is higher: -0.947% for the first, -6.35% for the second.

Going from `CCOC(=O)c1c(NC(=O)c2ccco2)sc2c1CCCC2` to `COc1ccc(-c2nnn(CC(=O)Nc3sc4c(c3C#N)CCCC4)n2)cc1`, the “hERG current change (%, negative = inhibition) at 10uM” value rises from 4.29% to 19.7%.

Compared with `CN(C)C1=NC[C@H](Cc2ccccc2)N1CCCC1CCCCC1`, `Cc1ccc(S(=O)(=O)N(CC(=O)Nc2cccc([N+](=O)[O-])c2)C2CCCCC2)cc1` is higher in “hERG current change (%, negative = inhibition) at 10uM” value: -70.8% for the first, 4.17% for the second.

Going from `COc1ccccc1C(=O)NCCC(=O)N1CCN(c2ccccc2Cl)CC1` to `N/C(=N\OC(=O)CCCc1ccccc1)c1ccccc1Cl`, the “hERG current change (%, negative = inhibition) at 10uM” value rises from -13.5% to 2.96%.

Compared with `CCCCc1ccc(NC(=O)CN(C)CC(=O)Nc2ccccc2Cl)cc1`, `O=C(CSc1ccccc1)Nc1ccc2c(c1)OCCO2` is higher in “hERG current change (%, negative = inhibition) at 10uM” value: -10.6% for the first, -10.4% for the second.

Compared with `N/C(=N/O)c1nc(N2CCCC2)nc(N(c2ccccc2)c2ccccc2)n1`, `Cn1c2ccccc2c2cc(C(=O)O)ccc21` is higher in “hERG current change (%, negative = inhibition) at 10uM” value: -3.65% for the first, 6.48% for the second.

First: CC(CC(C)C(=O)Nc1ccccc1C(C)(C)C)C(=O)O (stereo not shown)
Second: CCOC(=O)C1=C(COC(=O)/C=C/c2ccccc2)NC(=O)NC1C (stereo not shown)
The “hERG current change (%, negative = inhibition) at 10uM” value of the first is higher: 6.12% for the first, 0.044% for the second.

Going from `CS(=O)(=O)Oc1ccc2c(c1)O/C(=C\c1cccnc1)C2=O` to `CCOc1cc(/C=N/NC(=O)C(=O)NCc2cccnc2)ccc1O`, the “hERG current change (%, negative = inhibition) at 10uM” value falls from -3.92% to -4.7%.

Compared with `COc1ccc(CC(=O)N/N=C(/C)c2ccco2)cc1`, `COc1ccc2ccccc2c1/C=N/O` is higher in “hERG current change (%, negative = inhibition) at 10uM” value: -1.8% for the first, 7.38% for the second.

Going from `Cl.O=C(CCN1CCOCC1)N1c2ccccc2Sc2ccc(Cl)cc21` to `COc1ccc(CC(=O)Oc2ccc(Br)cc2F)cc1S(=O)(=O)N1CCOCC1`, the “hERG current change (%, negative = inhibition) at 10uM” value falls from -14.8% to -33%.

Compared with `O=C(Nc1nc(-c2cccc3ccccc23)cs1)c1ccc2c(c1)S(=O)(=O)c1ccccc1C2=O`, `O=C(O)CSCc1nc2ccccc2s1` is higher in “hERG current change (%, negative = inhibition) at 10uM” value: 7.53% for the first, 14.6% for the second.

First: Nc1c(C(=O)O)cnc2nc(N3CCOCC3)nn12
Second: Cn1nc(-c2ccc(S(N)(=O)=O)s2)cc1C(F)(F)F
The “hERG current change (%, negative = inhibition) at 10uM” value of the first is higher: 21.7% for the first, 3.88% for the second.
